Here are results for 39 compounds from the supplement of paper PMC9446081.

The structures appear in SMILES notation. Screen size: about 39,000 compounds; about 220 (0.56%) showed activity. The list shows a part of the results.
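Further: static incubation at 37 °C against the wild-type strain, values averaged over two biological replicates.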

The assay deals with Escherichia coli K-12 BW25113. Briefly: relative growth (OD600 normalised to plate interquartile mean) (fraction); higher = less growth inhibition, active = 0.2 or less. The following applies: 50 µM; LB; incubation time: overnight (16-24 h).
Consider `COc1ccc2c3c(n(c2c1)C)[C@@H](CO)N(Cc1ccccc1F)C[C@]13CN(C1)C(=O)C1CCOCC1`, for which the relative growth is inactive: 0.994.
As to `Cc1ccc(-c2ccc3c(c2)O[C@H](CN(C)C(=O)Nc2ccc(C(F)(F)F)cc2)[C@H](C)CN([C@@H](C)CO)S3(=O)=O)cc1`, the relative growth is inactive: 1.02.
The same measure for `O=C(C[C@H]1CC[C@@H]2[C@H](COC[C@@H](O)CN2Cc2ccccc2F)O1)N[C@H]1CCN(Cc2ccccc2)C1`: inactive: 0.997; for `C[C@@H]1CN([C@@H](C)CO)C(=O)c2cc(NC(=O)CCC(F)(F)F)ccc2O[C@@H](C)CCCCO[C@@H]1CN(C)S(=O)(=O)c1ccc(Cl)cc1`: inactive: 1.02; for `Cc1cc(O)c2c(c1)Cc1cccc(O)c1C2=O`: inactive: 0.896.
The same measure for `NC(=O)c1cc(S(N)(=O)=O)ccc1Cl`: inactive: 0.993.
As to `C[C@H]1CN([C@@H](C)CO)S(=O)(=O)c2ccc(/C=C/c3ccccc3)cc2O[C@H]1CN(C)C(=O)Nc1cc(F)ccc1F`, the relative growth is inactive: 1.01.
For `CO[C@@H]1CN(C)C(=O)c2ccc(NS(=O)(=O)c3ccccc3)cc2OC[C@H](C)N(C(=O)NC(C)C)C[C@@H]1C` the value was inactive: 1.02.
Consider `Cc1noc(C)c1S(=O)(=O)Nc1ccc2c(c1)C(=O)N([C@@H](C)CO)C[C@H](C)[C@H](CN(C)C(=O)NC1CCCCC1)O2`, for which the relative growth is inactive: 0.985.
For `C=C1NC(=O)CN1c1ccc(N)cc1` the value was inactive: 0.979.
The same measure for `C[C@@H]1CN([C@@H](C)CO)C(=O)c2cc(NC(=O)Cc3ccccc3)ccc2O[C@@H]1CN(C)Cc1ccc(C(F)(F)F)cc1`: inactive: 0.959; for `Cc1cccc(NC(=O)C(C)C)c1`: inactive: 1.02; for `C[C@@H]1CCCCO[C@H](CN(C)Cc2ccc(C(F)(F)F)cc2)[C@@H](C)CN([C@H](C)CO)C(=O)c2cc(NC(=O)CCCN(C)C)ccc2O1`: inactive: 0.949.
Regarding `C[C@@H]1CN([C@@H](C)CO)S(=O)(=O)c2ccc(-c3cncnc3)cc2O[C@@H]1CN(C)C(=O)Cc1cccnc1`, the relative growth is inactive: 0.979.
For `O=C(C[C@@H]1C=C[C@@H](NC(=O)CN2CCOCC2)[C@H](CO)O1)NCc1cccc(F)c1`, the relative growth is inactive: 1.02.
`Cc1noc(C)c1NC(=O)N(C)C[C@@H]1OCCCC[C@H](C)Oc2ccc(NC(=O)NC3CCCCC3)cc2C(=O)N([C@@H](C)CO)C[C@H]1C`: the relative growth was inactive: 1.03.
For `O=C1OC2(c3ccc(O)cc3Oc3cc(O)ccc32)c2ccccc21`, the relative growth was inactive: 1.09.
For `C[C@@H]1CN([C@H](C)CO)C(=O)c2cc(NC(=O)C3CCCCC3)ccc2O[C@@H](C)CCCCO[C@@H]1CN(C)C(=O)C1CCCCC1` the value was inactive: 0.99.
The same measure for `COc1ccc(S(=O)(=O)Nc2ccc3c(c2)CC(=O)N([C@@H](C)CO)C[C@H](C)[C@@H](CN(C)S(=O)(=O)c2ccc(OC)cc2)O3)cc1`: inactive: 0.998.
With `O=C(C[C@H]1CC[C@H]2[C@@H](COC[C@H](O)CN2Cc2cc(F)ccc2F)O1)N[C@H]1CCN(Cc2ccccc2)C1`, the relative growth is inactive: 1.
Take `Cc1noc(C)c1NC(=O)N(C)C[C@H]1Oc2c(NC(=O)c3cnccn3)cccc2C(=O)N([C@@H](C)CO)C[C@@H]1C`: the relative growth is inactive: 0.995.
Take `C[C@H](NC(=O)C[C@@H]1C=C[C@@H](NC(=O)CN2CCOCC2)[C@@H](CO)O1)c1ccccc1`: the relative growth is inactive: 1.03.
Take `C[C@H](CO)N1C[C@H](C)[C@H](CN(C)S(=O)(=O)c2ccccc2)OCCCC[C@H](C)Oc2ccc(NS(=O)(=O)c3cn(C)cn3)cc2C1=O`: the relative growth was inactive: 1.01.
For the compound `CC(C)C#Cc1cnc2c(c1)C(=O)N([C@H](C)CO)C[C@H](C)[C@H](CN(C)C(=O)c1ccc3c(c1)OCO3)O2`, the relative growth is inactive: 0.977.
Regarding `CNC[C@@H]1OCCCC[C@@H](C)Oc2ccc(NC(=O)Nc3cccc4ccccc34)cc2C(=O)N([C@H](C)CO)C[C@H]1C`, the relative growth is inactive: 0.993.
On to `COc1ccc([Si](C)(C)[C@H]2[C@H](CC(=O)N3Cc4ccccc4C[C@H]3CO)O[C@@]3(C(=O)N(Cc4ccc(N5C(=O)c6cccc7cccc5c67)cc4)c4ccccc43)[C@@H]2C)cc1`, for which the relative growth was inactive: 1.01.
The same measure for `COCCNC(=O)C[C@H]1C[C@H]2c3cc(NC(=O)CN(C)C)ccc3O[C@H]2[C@H](CO)O1`: inactive: 0.973; for `C[C@@H]1CCCCO[C@@H](CN(C)S(C)(=O)=O)[C@H](C)CN([C@@H](C)CO)C(=O)c2cc(NC(=O)c3ccncc3)ccc2O1`: inactive: 1.
For `O=C(C[C@H]1CC[C@H]2[C@@H](COC[C@@H](O)CN2C(=O)Nc2cccc(F)c2)O1)NCc1ccccc1Cl` the value was inactive: 0.953.
The same measure for `C#CCCC(=O)NS(=O)(=O)c1ccccc1`: inactive: 1; for `C[C@@H]1CN([C@H](C)CO)C(=O)c2cccc(NC(=O)NC3CCCCC3)c2O[C@H]1CN(C)S(=O)(=O)c1cn(C)cn1`: inactive: 0.999; for `C[C@@H]1CCCCO[C@H](CN(C)C(=O)NC2CCCCC2)[C@H](C)CN([C@@H](C)CO)C(=O)c2cc(NS(=O)(=O)c3ccc(F)cc3)ccc2O1`: inactive: 0.977.
With `CC(C)NC(=O)Nc1ccc2c(c1)CC(=O)N([C@@H](C)CO)C[C@@H](C)[C@@H](CN(C)S(=O)(=O)c1cccs1)O2`, the relative growth was inactive: 1.02.
For the compound `C[C@@H]1CN([C@H](C)CO)C(=O)CCCn2nncc2CO[C@@H]1CN(C)S(=O)(=O)c1ccc(Oc2ccccc2)cc1`, the relative growth was inactive: 1.02.
In the case of `CCOC(=O)C1CCNCC1`, the relative growth is inactive: 0.987.
Regarding `C[C@H](CO)N1C[C@H](C)[C@H](CN(C)C(=O)Nc2ccccc2)Oc2ncc(-c3cccc(C(F)(F)F)c3)cc2C1=O`, the relative growth is inactive: 1.01.
For `COc1ccc(S(=O)(=O)Nc2ccc3c(c2)C(=O)N([C@@H](C)CO)C[C@@H](C)[C@@H](CN(C)S(=O)(=O)c2ccc(C)cc2)O3)cc1`, the relative growth was inactive: 1.02.
The same measure for `C[C@@H]1CCCCO[C@H](CN(C)C(=O)CCC(F)(F)F)[C@@H](C)CN([C@@H](C)CO)C(=O)c2cc(NC(=O)C3CCCCC3)ccc2O1`: inactive: 1; for `O=C(c1ccccc1Cl)c1cccnc1-c1nnn(Cc2cc(C(F)(F)F)cc(C(F)(F)F)c2)c1-c1ccncc1`: inactive: 1.01.
